# Measured values from the supplement of paper PMC10037445.
# Where “and” joins values, the source holds several entries; their conditions need not be identical. Equal values may be shown once. Over roughly 2,900 compounds, “IRF Lucia reporter activity, fold change vs agonist alone” has its median near 0.9; the highest 2% begin near 2.8. This is one part of the list.
# Experiments:
# [1] = system: RAW-Dual; experiment: IRF Lucia reporter activity, fold change vs agonist alone; higher = enhanced IRF activity; settings: library stock concentration (final ~1000-fold dilution): 10 mM, agonist: MPLA (TLR4) […]
# How it was run: (§1)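 Cytotoxic wells were those whose IncuCyte confluency was below 70% of agonist controls in both mask sets. The cells were RAW-Dual macrophages at 50,000 cells/well in DMEM on 384-well plates, dosed with 50 nL of library stock by pin tool, stimulated with a PRR agonist 1 h later, and kept at 37 °C, 5% CO2 for 20 hours. IRF and NF-κB reporter activity, as fold change over agonist-alone wells, came from supernatant read by QuantiLuc luminescence and QuantiBlue absorbance, respectively.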
# [2] = system: RAW-Dual; experiment: IRF Lucia reporter activity, fold change vs agonist alone; cytotoxicity flag (confluency mask): not cytotoxic; higher = enhanced IRF activity
# How it was run: as §1
# [3] = system: RAW-Dual; experiment: IRF Lucia reporter activity, fold change vs agonist alone; cytotoxicity flag (confluency mask): cytotoxic (confluency <70% of control); higher = enhanced IRF activity
# How it was run: as §1
# [4] = cytotoxicity flag (confluency mask): not cytotoxic
# [5] = agonist: 3'3'-cGAMP (STING) 10 ug/mL
structure (smiles),measurement,setting,value
Cn1c(=O)c2c(ncn2CC2OCCO2)n(C)c1=O,IRF Lucia reporter activity,[1]; [4],1.19
Cn1c(=O)c2c(ncn2CC2OCCO2)n(C)c1=O (library stock concentration (final ~1000-fold dilution): 10 mM),IRF Lucia reporter activity,[2]; [5],1.07
same,IRF Lucia reporter activity,[2]; agonist: LPS (TLR4) 0.1 ug/mL,1.08
CC(C)(C)NCC(O)COc1ccccc1C1CCCC1.CC(C)(C)NCC(O)COc1ccccc1C1CCCC1.O=S(=O)(O)O (centres undefined) (library stock concentration (final ~1000-fold dilution): 10 mM),IRF Lucia reporter activity,[2]; [5],0.74
same,IRF Lucia reporter activity,[2]; agonist: LPS (TLR4) 0.1 ug/mL,1.6
CCCCCCCCCCCCCCOC1C(OC)OC(CN)C(O)C1OCCCCCCCCCCCCCC (centres undefined) (library stock concentration (final ~1000-fold dilution): 1 mM),IRF Lucia reporter activity,[2]; [5],1.06
same,IRF Lucia reporter activity,[2]; agonist: LPS (TLR4) 0.1 ug/mL,0.996
CN(C)C(=O)CCSC(SCCC(=O)O)c1cccc(C=Cc2ccc3ccc(Cl)cc3n2)c1 (centres undefined) (library stock concentration (final ~1000-fold dilution): 10 mM),IRF Lucia reporter activity,[2]; [5],1.1
same,IRF Lucia reporter activity,[2]; agonist: LPS (TLR4) 0.1 ug/mL,1.28
O=C(OCC1OC(OC(=O)c2cc(O)c(O)c(OC(=O)c3cc(O)c(O)c(O)c3)c2)C(OC(=O)c2cc(O)c(O)c(OC(=O)c3cc(O)c(O)c(O)c3)c2)C(OC(=O)c2cc(O)c(O)c(OC(=O)c3cc(O)c(O)c(O)c3)c2)C1OC(=O)c1cc(O)c(O)c(OC(=O)c2cc(O)c(O)c(O)c2)c1)c1cc(O)c(O)c(OC(=O)c2cc(O)c(O)c(O)c2)c1 (centres undefined),IRF Lucia reporter activity,[1]; [4],1.78
O=C(OCC1OC(OC(=O)c2cc(O)c(O)c(OC(=O)c3cc(O)c(O)c(O)c3)c2)C(OC(=O)c2cc(O)c(O)c(OC(=O)c3cc(O)c(O)c(O)c3)c2)C(OC(=O)c2cc(O)c(O)c(OC(=O)c3cc(O)c(O)c(O)c3)c2)C1OC(=O)c1cc(O)c(O)c(OC(=O)c2cc(O)c(O)c(O)c2)c1)c1cc(O)c(O)c(OC(=O)c2cc(O)c(O)c(O)c2)c1 (centres undefined) (library stock concentration (final ~1000-fold dilution): 10 mM),IRF Lucia reporter activity,[2]; [5],0.399
same,IRF Lucia reporter activity,[2]; agonist: LPS (TLR4) 0.1 ug/mL,2.01
COc1ccc(Oc2cc(C)c(-c3csc(NC(=O)c4ccncc4)n3)c(C)c2)cc1,IRF Lucia reporter activity,[1]; [4],1.44
COc1ccc(Oc2cc(C)c(-c3csc(NC(=O)c4ccncc4)n3)c(C)c2)cc1 (library stock concentration (final ~1000-fold dilution): 10 mM),IRF Lucia reporter activity,[2]; [5],0.879
same,IRF Lucia reporter activity,[2]; agonist: LPS (TLR4) 0.1 ug/mL,1.23
COCC(=O)NC/C=C/c1ccc2ncnc(Nc3ccc(Oc4ccc(C)nc4)c(C)c3)c2c1 (library stock concentration (final ~1000-fold dilution): 10 mM),IRF Lucia reporter activity,[2]; [5],0.697
same,IRF Lucia reporter activity,[2]; agonist: LPS (TLR4) 0.1 ug/mL,1.01
COCC(=O)NC/C=C/c1ccc2ncnc(Nc3ccc(Oc4ccc(C)nc4)c(C)c3)c2c1,IRF Lucia reporter activity,[1]; [4],0.82
CC(C)NCC(O)COc1ccc(CC(N)=O)cc1 (centres undefined) (library stock concentration (final ~1000-fold dilution): 10 mM),IRF Lucia reporter activity,[2]; [5],0.976
same,IRF Lucia reporter activity,[2]; agonist: LPS (TLR4) 0.1 ug/mL,1.23
CC(C)NCC(O)COc1ccc(CC(N)=O)cc1 (centres undefined),IRF Lucia reporter activity,[1]; [4],1
CCCCNc1ncc(C(=O)NCc2ccc(-n3ccnc3)cc2)c(NC2CCC(O)CC2)n1 (centres undefined) (library stock concentration (final ~1000-fold dilution): 10 mM),IRF Lucia reporter activity,[2]; [5],0.0128
same,IRF Lucia reporter activity,[2]; agonist: LPS (TLR4) 0.1 ug/mL,0.0441
CCCCNc1ncc(C(=O)NCc2ccc(-n3ccnc3)cc2)c(NC2CCC(O)CC2)n1 (centres undefined),IRF Lucia reporter activity,[1]; [4],0.0212
NC(CC(=O)N1CCn2c(nnc2C(F)(F)F)C1)Cc1cc(F)c(F)cc1F (centres undefined) (library stock concentration (final ~1000-fold dilution): 10 mM),IRF Lucia reporter activity,[2]; [5],0.983 and 1.04
same,IRF Lucia reporter activity,[2]; agonist: LPS (TLR4) 0.1 ug/mL,1.07 and 1.26
O=C(/C=C/c1ccc(O)c(O)c1)O[C@@H]1C[C@@](O)(C(=O)O)C[C@@H](O)[C@@H]1O (library stock concentration (final ~1000-fold dilution): 10 mM),IRF Lucia reporter activity,[2]; [5],1.02
same,IRF Lucia reporter activity,[2]; agonist: LPS (TLR4) 0.1 ug/mL,1.23
C=CC(=O)Nc1cccc(Sc2nc(Nc3ccc(N4CCN(C)CC4)cc3)ncc2Cl)c1 (library stock concentration (final ~1000-fold dilution): 10 mM),IRF Lucia reporter activity,[2]; [5],0.00681
same,IRF Lucia reporter activity,[2]; agonist: LPS (TLR4) 0.1 ug/mL,0.0417
C=CC(=O)Nc1cccc(Sc2nc(Nc3ccc(N4CCN(C)CC4)cc3)ncc2Cl)c1,IRF Lucia reporter activity,[1]; [4],0.0982
CN1C2CCC1CC(OC(c1ccccc1)c1ccccc1)C2.CS(=O)(=O)O (centres undefined),IRF Lucia reporter activity,[1]; [4],1.34
CN1C2CCC1CC(OC(c1ccccc1)c1ccccc1)C2.CS(=O)(=O)O (centres undefined) (library stock concentration (final ~1000-fold dilution): 10 mM),IRF Lucia reporter activity,[2]; [5],0.534
same,IRF Lucia reporter activity,[2]; agonist: LPS (TLR4) 0.1 ug/mL,1.02
CC(C)(O)c1ccccc1CCC(SCC1(CC(=O)O)CC1)c1cccc(C=Cc2ccc3ccc(Cl)cc3n2)c1 (centres undefined) (library stock concentration (final ~1000-fold dilution): 10 mM),IRF Lucia reporter activity,[3]; [5],0.581
same,IRF Lucia reporter activity,[3]; agonist: LPS (TLR4) 0.1 ug/mL,1.62
CC(C)(O)c1ccccc1CCC(SCC1(CC(=O)O)CC1)c1cccc(C=Cc2ccc3ccc(Cl)cc3n2)c1 (centres undefined),IRF Lucia reporter activity,[1]; cytotoxicity flag (confluency mask): cytotoxic (confluency <70% of control),0.974
CCOC(=O)C1=CCCCC1S(=O)(=O)Nc1ccc(F)cc1Cl (centres undefined) (library stock concentration (final ~1000-fold dilution): .1 mM),IRF Lucia reporter activity,[2]; [5],0.854
same,IRF Lucia reporter activity,[2]; agonist: LPS (TLR4) 0.1 ug/mL,0.0388
